The chains are these.
B1: PhoQ; a variant is named by its letters at X, in order, P23837 (parent)
chain: MKKLLRLFFPLSLRVRFLLATAAVVLVLSLAYGMVALIGYSVSFDKTTFRLLRGESNLFYTLAKWENNKLHVELPENIDKQSPTMTLIYDENGQLLWAQRDVPWLMKMIQPDWLKSNGFHEIEADVNDTSLLLSGDHSIQQQLQEVREDDDDAEMTHSVAVNVYPATSRMPKLTIVVVDTIPVELKSSYMVWSWFIYVLSANLLLVIPLLWVAAWWSLRPIEALAKEVRELEEHNRELLNPATTRELTSLVRNLNRLLKSERERYDKYRTTLTDLTHSLKTPLXXLQXXLRSLRSEKMSVSDAEPVMLEQISRISQQIGYYLHRASMRGGTLLSRELHPVAPLLDNLTSALNKVYQRKGVNISLDISPEISFVGEQNDFVEVMGNVLDNACKYCLEFVEISARQTDEHLYIVVEDDGPGIPLSKREVIFDRGQRVDTLRPGQGVGLAVAREITEQYEGKIVAGESMLGGARMEVIFGRQHSAPKDE

Some of the results follow.

In this test the parent is B1. Description: enrichment ratio after two sorts for PhoP signalling (ratio (wild type AVST 3.29)); higher = more functional. Conditions: with PhoP (E. coli).
Consider GDMY, for which the enrichment ratio was ≤ 0.25.
Turning to AMMH, the enrichment ratio amounted to 0.296.
As for WSAF, the figure is 0.647; as for QMAI, ≤ 0.25.
VTIY: the enrichment ratio is ≤ 0.25.
On to HKCY, for which the enrichment ratio is ≤ 0.25.
In the case of VDQY it was ≤ 0.25; in that of HTKQ, ≤ 0.25; in that of AEFD, ≤ 0.25.
Take VWMC: the enrichment ratio is ≤ 0.25.
Turning to THIF, the enrichment ratio was ≤ 0.25.
On to ENGV, for which the enrichment ratio was ≤ 0.25.
As to KNAV, the enrichment ratio is ≤ 0.25.
In the case of IRQW, the enrichment ratio is ≤ 0.25.
On to DNCQ, for which the enrichment ratio was ≤ 0.25.
In the case of WTDY it was ≤ 0.25; in that of TIAL, 12.9.
Take DGQP: the enrichment ratio was ≤ 0.25.
As for AGQF, the enrichment ratio was ≤ 0.25.
Consider QRSN, for which the enrichment ratio is ≤ 0.25.
As for VEYW, the figure is ≤ 0.25; as for TTGF, 17.1; as for FTDV, ≤ 0.25.
On to MFES, for which the enrichment ratio was ≤ 0.25.
Regarding ICPK, the enrichment ratio was ≤ 0.25.
For the variant GPDV, the enrichment ratio was ≤ 0.25.
As for TMKW, the figure is ≤ 0.25; as for KEVI, ≤ 0.25; as for IPGT, ≤ 0.25.
With PVPR, the enrichment ratio was ≤ 0.25.
MTEA: the enrichment ratio was ≤ 0.25.
As for LEMM, the figure is 11.3.
In the case of HMVH it was ≤ 0.25; in that of PDCF, ≤ 0.25; in that of GAPY, ≤ 0.25.
On to HHRW, for which the enrichment ratio was ≤ 0.25.
On to MELS, for which the enrichment ratio stood at 9.24.
As for SMNW, the enrichment ratio was ≤ 0.25.
For the variant HDGQ, the enrichment ratio is ≤ 0.25.
As for NPFE, the enrichment ratio is ≤ 0.25.
As for KHFH, the figure is ≤ 0.25.
On to LMDI, for which the enrichment ratio was ≤ 0.25.
EQHL: the enrichment ratio was ≤ 0.25.
In the case of RGEA it was ≤ 0.25.
Consider VSWE, for which the enrichment ratio is ≤ 0.25.
NIFS: the enrichment ratio was ≤ 0.25.
With FAGP, the enrichment ratio is ≤ 0.25.
In the case of IHMD it was ≤ 0.25; in that of MHER, ≤ 0.25; in that of APIF, ≤ 0.25.
Consider QLMV, for which the enrichment ratio was ≤ 0.25.
Turning to DVAQ, the enrichment ratio was ≤ 0.25.
Regarding MAPS, the enrichment ratio was ≤ 0.25.
On to EDHT, for which the enrichment ratio was ≤ 0.25.
For KDDE, the enrichment ratio is ≤ 0.25.
As for HHSC, the figure is ≤ 0.25.
As to FEWP, the enrichment ratio was ≤ 0.25.
For PKTE, the enrichment ratio was ≤ 0.25.
Turning to DCGM, the enrichment ratio was ≤ 0.25.
As for DHSI, the figure is ≤ 0.25.
As for SCTY, the enrichment ratio was 15.6.
Regarding HRAE, the enrichment ratio is ≤ 0.25.
Consider YATM, for which the enrichment ratio is ≤ 0.25.
As for GTRV, the figure is ≤ 0.25; as for VGKT, ≤ 0.25; as for TGSD, ≤ 0.25.
As for DRED, the figure is ≤ 0.25; as for VDYY, ≤ 0.25.
For the variant NQMK, the enrichment ratio was ≤ 0.25.
Turning to GFIA, the enrichment ratio was ≤ 0.25.
As for TKNY, the figure is 5.32; as for KEQW, ≤ 0.25; as for IHWH, ≤ 0.25.
In the case of KEQV it was ≤ 0.25; in that of VVNF, ≤ 0.25.
Take IDKD: the enrichment ratio is ≤ 0.25.
As for NCAK, the figure is ≤ 0.25.
In the case of PELQ, the enrichment ratio was ≤ 0.25.
In the case of IRCH it was ≤ 0.25; in that of RKHF, ≤ 0.25.
On to PPYK, for which the enrichment ratio is ≤ 0.25.
ITHN: the enrichment ratio is ≤ 0.25.
In the case of FSPH it was ≤ 0.25; in that of KLHC, ≤ 0.25.
TPES: the enrichment ratio is ≤ 0.25.
For IIAE, the enrichment ratio was ≤ 0.25.
As for SGQF, the figure is ≤ 0.25; as for QDNH, ≤ 0.25; as for SRNI, ≤ 0.25.
IYNM: the enrichment ratio is ≤ 0.25.
As for KINR, the figure is ≤ 0.25; as for YQDL, ≤ 0.25; as for FGMM, 18.1.
Regarding NHFV, the enrichment ratio is ≤ 0.25.
With PWPH, the enrichment ratio is ≤ 0.25.
On to TASP, for which the enrichment ratio stood at 0.655.
On to TVMP, for which the enrichment ratio is ≤ 0.25.
With EHFR, the enrichment ratio was ≤ 0.25.
On to GCYW, for which the enrichment ratio was ≤ 0.25.
As for QMMP, the enrichment ratio is ≤ 0.25.
In the case of HTGE, the enrichment ratio is ≤ 0.25.
In the case of LWQK, the enrichment ratio is ≤ 0.25.
Take HQER: the enrichment ratio was ≤ 0.25.
With NRLM, the enrichment ratio is ≤ 0.25.
On to IPDW, for which the enrichment ratio is ≤ 0.25.
Take MAVR: the enrichment ratio was ≤ 0.25.
In the case of FAYH, the enrichment ratio was ≤ 0.25.
In the case of LAKG it was ≤ 0.25.
In the case of KYQR, the enrichment ratio was ≤ 0.25.
In the case of FIVV, the enrichment ratio is ≤ 0.25.
Regarding FNVR, the enrichment ratio was ≤ 0.25.
On to VCQC, for which the enrichment ratio is ≤ 0.25.
For VACL, the enrichment ratio was 3.6.
HCSH: the enrichment ratio is ≤ 0.25.
NSDR: the enrichment ratio is ≤ 0.25.
On to LHFI, for which the enrichment ratio is ≤ 0.25.
As to DIGA, the enrichment ratio is ≤ 0.25.
For the variant PAWN, the enrichment ratio is ≤ 0.25.
For WMYD, the enrichment ratio was ≤ 0.25.
On to ALGC, for which the enrichment ratio was ≤ 0.25.
On to ILHP, for which the enrichment ratio is ≤ 0.25.
On to IMKT, for which the enrichment ratio is ≤ 0.25.
For the variant WAIG, the enrichment ratio is ≤ 0.25.
On to KTYP, for which the enrichment ratio is ≤ 0.25.
For the variant CTTF, the enrichment ratio is ≤ 0.25.
In the case of GKIA, the enrichment ratio was ≤ 0.25.
Turning to WWNI, the enrichment ratio was ≤ 0.25.
In the case of MVMC it was ≤ 0.25; in that of NQAL, ≤ 0.25.
As for EAWE, the figure is ≤ 0.25.
Regarding MHDT, the enrichment ratio is ≤ 0.25.
Consider KYVF, for which the enrichment ratio is ≤ 0.25.
ASHR: the enrichment ratio was ≤ 0.25.
In the case of VACY it was ≤ 0.25; in that of TMGA, 17.5; in that of KQFD, ≤ 0.25.
As to QFRY, the enrichment ratio was ≤ 0.25.
For LNPA, the enrichment ratio was ≤ 0.25.
Turning to SGMW, the enrichment ratio is ≤ 0.25.
Regarding INMY, the enrichment ratio is ≤ 0.25.
Turning to QLPM, the enrichment ratio was ≤ 0.25.
Take STVI: the enrichment ratio amounted to 9.68.
With IAQK, the enrichment ratio was ≤ 0.25.
In the case of IRCS it was ≤ 0.25.
With LRCM, the enrichment ratio was ≤ 0.25.
With PPWD, the enrichment ratio was ≤ 0.25.
FQKC: the enrichment ratio was ≤ 0.25.
In the case of YNYI it was ≤ 0.25.
As to FRTG, the enrichment ratio was ≤ 0.25.
Take YEDD: the enrichment ratio is ≤ 0.25.
With PVPV, the enrichment ratio is ≤ 0.25.
In the case of IDLY, the enrichment ratio is ≤ 0.25.
Regarding KLCP, the enrichment ratio was ≤ 0.25.
